Measured values: the supplement of paper PMC3334620
In all, about 33,000 sequences were measured (“E-score (-0.5 to 0.5)”: median about -0.021, highest 2% from about 0.32 on). The list shows a part of the results.

Target: T1, Zap1 (UniProt P47043)
T1 sequence: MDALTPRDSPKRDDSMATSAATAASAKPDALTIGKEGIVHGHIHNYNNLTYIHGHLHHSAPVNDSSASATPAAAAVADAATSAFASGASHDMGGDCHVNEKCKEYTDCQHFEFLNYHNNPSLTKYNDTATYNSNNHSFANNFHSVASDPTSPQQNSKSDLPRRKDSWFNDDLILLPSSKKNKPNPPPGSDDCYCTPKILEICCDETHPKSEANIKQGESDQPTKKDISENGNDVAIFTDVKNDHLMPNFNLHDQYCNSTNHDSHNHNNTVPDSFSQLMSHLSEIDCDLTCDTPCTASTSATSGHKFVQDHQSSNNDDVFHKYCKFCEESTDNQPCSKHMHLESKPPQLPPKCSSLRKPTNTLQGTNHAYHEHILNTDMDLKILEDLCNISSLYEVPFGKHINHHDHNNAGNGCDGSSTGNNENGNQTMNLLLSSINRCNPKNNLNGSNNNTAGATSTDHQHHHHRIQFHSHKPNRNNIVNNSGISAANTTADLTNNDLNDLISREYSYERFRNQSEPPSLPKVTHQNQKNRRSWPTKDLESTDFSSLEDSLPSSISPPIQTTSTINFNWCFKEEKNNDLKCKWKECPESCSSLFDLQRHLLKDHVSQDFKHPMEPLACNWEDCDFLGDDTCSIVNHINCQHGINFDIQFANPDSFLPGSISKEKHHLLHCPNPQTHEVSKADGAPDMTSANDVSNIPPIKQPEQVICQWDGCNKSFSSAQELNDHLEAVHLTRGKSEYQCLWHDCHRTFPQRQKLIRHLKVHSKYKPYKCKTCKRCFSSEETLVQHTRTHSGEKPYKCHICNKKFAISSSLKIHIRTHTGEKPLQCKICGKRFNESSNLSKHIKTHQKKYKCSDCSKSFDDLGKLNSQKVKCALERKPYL
Test: PBM E-score (8-mer binding enrichment) (E-score (-0.5 to 0.5)); higher = stronger / more preferred TF binding; most listed sequences are background and not binding sites
Details: protein concentration: 200 nM; construct: GST-full length
Summary of the method: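 Masliner-normalised scans of fluorescent anti-GST signal were the basis for scoring. That signal came from GST-tagged yeast transcription factors applied at about 100-200 nM to double-stranded universal all-10-mer Agilent arrays on fresh or once-stripped slides. Each ungapped eight-base word, pooled with its reverse complement, received an E-score from the Universal PBM Analysis Suite.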

Compared with AACAGAAT, GTATTCAA is higher in “PBM E-score” value: -0.121 for the first, 0.123 for the second.

Going from GATACACA to CATTTTGG, the “PBM E-score” value rises from -0.0237 to 0.144.

Compared with CTAAATCA, AGAAATAG is lower in “PBM E-score” value: 0.153 for the first, 0.101 for the second.

Going from GTACCCGA to ACACTGCT, the “PBM E-score” value falls from 0.184 to -0.156.

Going from CTCTCCGA to TGCCAGAA, the “PBM E-score” value rises from -0.0405 to -0.0227.

First: GAGAAGAA
Second: AGCGATTG
The “PBM E-score” value of the first is higher: 0.0995 for the first, -0.19 for the second.

First: ACTGAGAG
Second: GCCCGTCC
The “PBM E-score” value of the first is higher: -0.205 for the first, -0.318 for the second.

First: ACTTCTAA
Second: ACGGTACG
The “PBM E-score” value of the first is lower: -0.0406 for the first, 0.0714 for the second.

First: TACTTGCA
Second: AGGTTCTG
The “PBM E-score” value of the first is lower: 0.0221 for the first, 0.0612 for the second.

First: GGGTCTGA
Second: CCTACATA
The “PBM E-score” value of the first is lower: -0.0635 for the first, 0.0736 for the second.

First: AGTCGAAA
Second: GTGGCATA
The “PBM E-score” value of the first is lower: -0.107 for the first, -0.0833 for the second.

Compared with GTAAATAA, TAGTTTCA is lower in “PBM E-score” value: 0.154 for the first, 0.0596 for the second.

First: GACAGTCA
Second: AGTAGCTC
The “PBM E-score” value of the first is lower: -0.217 for the first, -0.177 for the second.

Compared with ATATGCCG, TACATGAA is lower in “PBM E-score” value: -0.0539 for the first, -0.11 for the second.

Going from CACCTCGG to ACTGGACT, the “PBM E-score” value falls from 0.0517 to -0.178.

First: GGAACTCC
Second: AGGACATA
The “PBM E-score” value of the first is lower: -0.155 for the first, 0.118 for the second.

Compared with GTATCCTA, GTCCTGTA is lower in “PBM E-score” value: 0.101 for the first, 0.0824 for the second.

First: GACATAAA
Second: CACAGACG
The “PBM E-score” value of the first is higher: 0.0452 for the first, -0.0494 for the second.

Compared with ATTAGGTC, AGCACTTA is lower in “PBM E-score” value: 0.242 for the first, -0.191 for the second.

Going from TAGTACTA to GTTGTTCA, the “PBM E-score” value falls from 0.263 to 0.0615.

Compared with GAATTAAA, ACCGCCGG is lower in “PBM E-score” value: 0.0572 for the first, 0.0345 for the second.

Compared with CTACGTTA, ATTATTAG is higher in “PBM E-score” value: -0.0352 for the first, 0.0497 for the second.

First: GGTCTCAA
Second: CGACACAG
The “PBM E-score” value of the first is higher: 0.169 for the first, 0.0118 for the second.

Compared with AGCATGCT, CCCAACAA is higher in “PBM E-score” value: -0.116 for the first, 0.156 for the second.

First: CTAGATCC
Second: CCTAAACC
The “PBM E-score” value of the first is lower: -0.117 for the first, 0.0156 for the second.

Compared with GCCTGTGA, GTCGTCAC is higher in “PBM E-score” value: -0.183 for the first, 0.183 for the second.

Going from ACGGTGAA to ATTTTGGG, the “PBM E-score” value rises from -0.0282 to 0.206.

Going from CAAACTTA to CACATACA, the “PBM E-score” value falls from 0.0348 to -0.0437.

First: GGTCGTCA
Second: AACTACCA
The “PBM E-score” value of the first is lower: 0.172 for the first, 0.179 for the second.

Going from CACCACGG to AAGCTTAA, the “PBM E-score” value rises from -0.112 to 0.0366.

Going from GCTCTGCA to CTAAACCC, the “PBM E-score” value rises from -0.108 to 0.051.

Compared with CCAGTTTC, TTCTCAAA is higher in “PBM E-score” value: -0.0588 for the first, 0.185 for the second.

Compared with CACCCAGG, CCACGGAG is higher in “PBM E-score” value: 0.053 for the first, 0.0833 for the second.

Going from AAGCTAAG to TCCAAGAA, the “PBM E-score” value rises from -0.101 to -0.0864.

Going from TATTGCGA to CTGGTATA, the “PBM E-score” value falls from 0.17 to -0.0413.

Compared with TCCCGCCA, GGCTTATA is higher in “PBM E-score” value: -0.0582 for the first, -0.0306 for the second.

Compared with ACCGAGTA, AATCACGC is higher in “PBM E-score” value: -0.0716 for the first, -0.0575 for the second.

Compared with ATTGGGCG, CTATTTAC is higher in “PBM E-score” value: -0.0725 for the first, 0.0797 for the second.

Compared with ATATATTG, GAGCTGAA is lower in “PBM E-score” value: -0.0627 for the first, -0.144 for the second.

First: AATGCAAG
Second: CGTCTCAC
The “PBM E-score” value of the first is higher: 0.0663 for the first, -0.107 for the second.

First: CGAGAGAC
Second: CAATCCGC
The “PBM E-score” value of the first is lower: -0.109 for the first, -0.0297 for the second.

Compared with ACTAAGAT, TGGTAAAA is lower in “PBM E-score” value: 0.164 for the first, 0.121 for the second.

Going from GCGAGTGA to AACATCAA, the “PBM E-score” value rises from 0.0176 to 0.0874.
